Results on one molecule are retold here after article PMC7480101.

Sequences of proteins named here, by UniProt entry; tags and fusion partners are left off. A change or cut given only in a name is not applied to a line headed by its entry. A line that says so, or that is headed by a name, gives the form on record, which may keep a tag or linker.
UniProt Q96CV9: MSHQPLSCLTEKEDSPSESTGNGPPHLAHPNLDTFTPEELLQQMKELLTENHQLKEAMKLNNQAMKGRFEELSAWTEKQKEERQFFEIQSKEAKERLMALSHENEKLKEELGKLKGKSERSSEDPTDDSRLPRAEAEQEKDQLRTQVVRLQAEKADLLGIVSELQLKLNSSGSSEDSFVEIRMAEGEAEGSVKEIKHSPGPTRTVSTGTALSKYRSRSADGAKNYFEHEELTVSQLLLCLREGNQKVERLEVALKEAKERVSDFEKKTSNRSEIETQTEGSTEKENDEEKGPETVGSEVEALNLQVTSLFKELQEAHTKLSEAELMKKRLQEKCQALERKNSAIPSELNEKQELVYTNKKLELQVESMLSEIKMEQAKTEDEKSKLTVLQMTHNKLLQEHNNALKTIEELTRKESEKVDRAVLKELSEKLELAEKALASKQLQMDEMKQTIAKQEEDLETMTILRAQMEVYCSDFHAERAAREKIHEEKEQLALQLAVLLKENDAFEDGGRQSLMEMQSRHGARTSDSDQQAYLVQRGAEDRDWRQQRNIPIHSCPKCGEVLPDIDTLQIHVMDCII
hAG-OPTN(210-577, S473E) (Q96CV9, form named): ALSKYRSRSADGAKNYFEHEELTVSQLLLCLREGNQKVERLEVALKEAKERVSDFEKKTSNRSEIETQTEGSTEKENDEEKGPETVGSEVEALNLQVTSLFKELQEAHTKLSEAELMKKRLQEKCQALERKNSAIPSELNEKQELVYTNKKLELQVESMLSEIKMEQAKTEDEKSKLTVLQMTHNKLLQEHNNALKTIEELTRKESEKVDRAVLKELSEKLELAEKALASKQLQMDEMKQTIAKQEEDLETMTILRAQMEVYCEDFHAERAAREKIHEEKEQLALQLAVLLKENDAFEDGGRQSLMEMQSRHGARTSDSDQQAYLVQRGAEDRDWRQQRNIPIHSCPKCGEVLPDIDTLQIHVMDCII
hAG-OPTN(138-5A-142, S473E) (Q96CV9, form named): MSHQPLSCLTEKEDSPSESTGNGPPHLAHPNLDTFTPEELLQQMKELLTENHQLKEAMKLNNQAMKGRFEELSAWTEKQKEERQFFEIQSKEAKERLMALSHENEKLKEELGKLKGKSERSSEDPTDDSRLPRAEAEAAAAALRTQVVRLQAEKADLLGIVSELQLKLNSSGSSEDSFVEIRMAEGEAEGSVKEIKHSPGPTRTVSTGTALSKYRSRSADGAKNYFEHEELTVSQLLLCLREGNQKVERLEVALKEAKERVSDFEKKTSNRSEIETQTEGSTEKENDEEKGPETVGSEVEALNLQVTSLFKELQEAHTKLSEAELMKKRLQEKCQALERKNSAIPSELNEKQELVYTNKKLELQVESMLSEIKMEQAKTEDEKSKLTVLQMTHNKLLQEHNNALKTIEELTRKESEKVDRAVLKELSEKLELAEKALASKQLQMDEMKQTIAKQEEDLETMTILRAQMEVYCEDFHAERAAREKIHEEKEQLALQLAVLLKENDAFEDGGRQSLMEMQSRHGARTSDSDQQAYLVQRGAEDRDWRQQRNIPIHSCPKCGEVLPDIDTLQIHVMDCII
hAG-OPTN(143-5A-147, S473E) (Q96CV9, form named): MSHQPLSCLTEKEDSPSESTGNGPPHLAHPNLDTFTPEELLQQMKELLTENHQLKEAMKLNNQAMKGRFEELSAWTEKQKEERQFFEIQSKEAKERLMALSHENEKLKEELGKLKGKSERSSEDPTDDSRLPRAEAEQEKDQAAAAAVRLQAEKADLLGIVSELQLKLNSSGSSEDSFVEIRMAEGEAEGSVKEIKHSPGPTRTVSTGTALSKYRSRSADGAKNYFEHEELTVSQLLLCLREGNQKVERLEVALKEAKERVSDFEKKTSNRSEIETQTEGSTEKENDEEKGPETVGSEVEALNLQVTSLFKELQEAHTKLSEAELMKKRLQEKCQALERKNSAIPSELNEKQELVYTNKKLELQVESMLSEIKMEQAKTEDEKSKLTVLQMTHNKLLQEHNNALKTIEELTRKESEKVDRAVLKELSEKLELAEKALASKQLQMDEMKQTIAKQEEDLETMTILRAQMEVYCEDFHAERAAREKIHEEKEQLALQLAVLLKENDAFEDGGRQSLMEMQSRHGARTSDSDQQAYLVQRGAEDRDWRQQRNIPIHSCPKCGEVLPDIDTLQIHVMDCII
hAG-OPTN(190-577, S473E) (Q96CV9, form named): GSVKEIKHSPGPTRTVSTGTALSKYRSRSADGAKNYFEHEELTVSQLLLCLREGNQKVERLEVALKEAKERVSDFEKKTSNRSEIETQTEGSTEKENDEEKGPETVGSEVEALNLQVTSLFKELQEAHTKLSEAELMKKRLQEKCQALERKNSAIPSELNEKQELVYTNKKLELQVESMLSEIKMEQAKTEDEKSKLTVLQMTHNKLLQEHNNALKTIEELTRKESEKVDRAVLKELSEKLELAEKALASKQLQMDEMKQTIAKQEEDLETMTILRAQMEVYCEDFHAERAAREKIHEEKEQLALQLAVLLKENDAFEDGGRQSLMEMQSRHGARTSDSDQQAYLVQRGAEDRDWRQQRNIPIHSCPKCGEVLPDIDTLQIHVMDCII
hAG-OPTN(128-5A-132, S473E) (Q96CV9, form named): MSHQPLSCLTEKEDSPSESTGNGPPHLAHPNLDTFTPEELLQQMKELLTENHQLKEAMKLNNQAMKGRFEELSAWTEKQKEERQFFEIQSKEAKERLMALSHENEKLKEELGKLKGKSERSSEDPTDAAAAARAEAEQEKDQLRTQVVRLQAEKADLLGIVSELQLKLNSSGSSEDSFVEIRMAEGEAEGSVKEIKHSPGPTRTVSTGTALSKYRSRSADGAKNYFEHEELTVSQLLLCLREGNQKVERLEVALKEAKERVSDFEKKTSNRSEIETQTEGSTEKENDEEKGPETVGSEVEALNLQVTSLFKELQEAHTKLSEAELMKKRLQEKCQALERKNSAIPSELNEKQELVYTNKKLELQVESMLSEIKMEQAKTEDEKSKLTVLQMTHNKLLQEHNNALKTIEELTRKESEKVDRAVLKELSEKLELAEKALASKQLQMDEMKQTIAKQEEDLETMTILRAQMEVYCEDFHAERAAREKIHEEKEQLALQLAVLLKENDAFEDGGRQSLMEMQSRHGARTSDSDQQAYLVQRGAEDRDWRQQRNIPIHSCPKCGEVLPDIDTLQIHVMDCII
hAG-OPTN(301-577, S473E) (Q96CV9, form named): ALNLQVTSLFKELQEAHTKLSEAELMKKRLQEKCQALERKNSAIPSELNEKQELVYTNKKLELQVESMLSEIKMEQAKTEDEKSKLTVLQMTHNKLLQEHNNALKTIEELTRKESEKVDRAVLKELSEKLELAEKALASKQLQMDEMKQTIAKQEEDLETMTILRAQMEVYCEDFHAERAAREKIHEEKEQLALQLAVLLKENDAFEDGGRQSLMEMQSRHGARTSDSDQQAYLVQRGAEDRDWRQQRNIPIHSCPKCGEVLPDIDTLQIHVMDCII
hAG-OPTN(170-577, S473E) (Q96CV9, form named): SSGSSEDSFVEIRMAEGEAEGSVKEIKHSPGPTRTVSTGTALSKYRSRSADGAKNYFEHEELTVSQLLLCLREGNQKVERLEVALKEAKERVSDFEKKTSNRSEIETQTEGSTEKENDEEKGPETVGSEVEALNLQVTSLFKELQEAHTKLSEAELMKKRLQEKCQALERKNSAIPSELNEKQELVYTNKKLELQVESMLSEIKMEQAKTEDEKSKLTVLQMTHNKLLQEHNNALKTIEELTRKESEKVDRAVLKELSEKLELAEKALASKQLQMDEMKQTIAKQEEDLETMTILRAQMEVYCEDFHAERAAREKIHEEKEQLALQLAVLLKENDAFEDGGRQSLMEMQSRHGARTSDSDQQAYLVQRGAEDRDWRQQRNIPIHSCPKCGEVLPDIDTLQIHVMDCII
hAG-OPTN(133-5A-137, S473E) (Q96CV9, form named): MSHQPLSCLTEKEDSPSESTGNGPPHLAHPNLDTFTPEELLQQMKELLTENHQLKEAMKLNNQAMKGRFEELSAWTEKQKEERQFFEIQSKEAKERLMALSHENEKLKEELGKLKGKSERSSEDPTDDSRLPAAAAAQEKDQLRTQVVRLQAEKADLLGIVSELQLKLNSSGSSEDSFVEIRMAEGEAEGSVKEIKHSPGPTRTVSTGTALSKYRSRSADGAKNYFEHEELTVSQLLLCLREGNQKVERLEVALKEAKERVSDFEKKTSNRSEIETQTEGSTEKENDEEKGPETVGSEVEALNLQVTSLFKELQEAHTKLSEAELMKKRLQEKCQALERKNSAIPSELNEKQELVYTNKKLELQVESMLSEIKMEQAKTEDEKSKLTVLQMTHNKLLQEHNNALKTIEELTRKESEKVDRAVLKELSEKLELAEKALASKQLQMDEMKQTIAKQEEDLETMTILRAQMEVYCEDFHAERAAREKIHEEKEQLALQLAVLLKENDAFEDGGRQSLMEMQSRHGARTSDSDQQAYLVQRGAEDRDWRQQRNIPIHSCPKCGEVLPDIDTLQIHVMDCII
hAG-OPTN(148-5A-152, S473E) (Q96CV9, form named): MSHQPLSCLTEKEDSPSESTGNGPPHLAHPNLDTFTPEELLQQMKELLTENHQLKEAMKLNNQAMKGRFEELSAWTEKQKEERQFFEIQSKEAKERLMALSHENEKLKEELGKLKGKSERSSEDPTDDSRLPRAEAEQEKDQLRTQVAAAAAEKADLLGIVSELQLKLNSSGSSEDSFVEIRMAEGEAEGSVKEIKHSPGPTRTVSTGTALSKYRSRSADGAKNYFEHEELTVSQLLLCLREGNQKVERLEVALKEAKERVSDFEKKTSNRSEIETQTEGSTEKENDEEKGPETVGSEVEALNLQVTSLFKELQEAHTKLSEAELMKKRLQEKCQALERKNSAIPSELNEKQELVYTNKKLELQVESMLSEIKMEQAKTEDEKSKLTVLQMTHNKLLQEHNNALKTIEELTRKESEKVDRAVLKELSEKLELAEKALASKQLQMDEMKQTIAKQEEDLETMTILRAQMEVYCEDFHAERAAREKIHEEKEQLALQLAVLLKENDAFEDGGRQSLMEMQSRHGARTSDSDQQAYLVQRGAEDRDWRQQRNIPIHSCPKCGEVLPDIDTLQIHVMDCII
hAG-OPTN(150-577, S473E) (Q96CV9, form named): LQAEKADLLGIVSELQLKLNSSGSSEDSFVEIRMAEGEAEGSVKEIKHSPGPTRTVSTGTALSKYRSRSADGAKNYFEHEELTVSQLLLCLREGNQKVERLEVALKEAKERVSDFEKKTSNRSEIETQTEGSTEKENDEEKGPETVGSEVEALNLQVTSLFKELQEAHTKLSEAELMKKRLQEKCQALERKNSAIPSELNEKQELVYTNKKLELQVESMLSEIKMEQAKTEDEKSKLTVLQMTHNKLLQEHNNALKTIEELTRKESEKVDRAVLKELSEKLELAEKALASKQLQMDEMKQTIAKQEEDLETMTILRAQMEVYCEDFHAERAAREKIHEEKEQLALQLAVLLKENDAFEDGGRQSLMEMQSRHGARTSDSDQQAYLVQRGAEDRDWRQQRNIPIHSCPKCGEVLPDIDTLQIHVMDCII
hAG-OPTN(401-577, S473E) (Q96CV9, form named): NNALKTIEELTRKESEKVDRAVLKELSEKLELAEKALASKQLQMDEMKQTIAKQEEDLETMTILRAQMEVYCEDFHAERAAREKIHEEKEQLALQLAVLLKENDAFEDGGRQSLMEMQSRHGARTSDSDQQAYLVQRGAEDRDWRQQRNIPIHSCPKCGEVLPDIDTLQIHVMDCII
UniProt Q14596: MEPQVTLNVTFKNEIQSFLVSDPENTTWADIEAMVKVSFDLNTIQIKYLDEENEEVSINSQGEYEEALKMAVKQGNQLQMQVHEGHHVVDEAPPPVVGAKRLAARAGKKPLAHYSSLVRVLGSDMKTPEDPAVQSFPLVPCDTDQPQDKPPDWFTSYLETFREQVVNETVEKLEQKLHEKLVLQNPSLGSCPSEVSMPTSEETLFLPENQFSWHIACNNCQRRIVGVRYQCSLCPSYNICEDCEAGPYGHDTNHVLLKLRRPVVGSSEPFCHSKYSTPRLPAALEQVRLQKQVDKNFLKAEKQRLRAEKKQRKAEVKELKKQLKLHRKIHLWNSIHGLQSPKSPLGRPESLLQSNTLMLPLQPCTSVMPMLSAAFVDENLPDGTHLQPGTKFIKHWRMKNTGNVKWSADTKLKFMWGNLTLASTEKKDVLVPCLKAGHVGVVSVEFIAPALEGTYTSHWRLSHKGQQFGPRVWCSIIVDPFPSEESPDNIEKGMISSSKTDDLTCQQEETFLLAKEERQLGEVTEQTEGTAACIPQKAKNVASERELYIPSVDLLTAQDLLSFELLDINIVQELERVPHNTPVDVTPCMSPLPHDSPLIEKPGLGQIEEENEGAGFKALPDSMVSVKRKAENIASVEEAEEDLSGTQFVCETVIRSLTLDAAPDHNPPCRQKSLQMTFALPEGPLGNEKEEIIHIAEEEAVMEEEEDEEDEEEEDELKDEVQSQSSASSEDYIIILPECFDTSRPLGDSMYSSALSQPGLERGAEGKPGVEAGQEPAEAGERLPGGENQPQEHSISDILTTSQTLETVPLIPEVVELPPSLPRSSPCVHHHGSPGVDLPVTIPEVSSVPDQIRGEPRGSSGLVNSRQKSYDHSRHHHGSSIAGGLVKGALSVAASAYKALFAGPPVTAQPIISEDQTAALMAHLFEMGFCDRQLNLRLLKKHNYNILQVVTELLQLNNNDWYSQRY

Holding throughout (assay): Fluoppi (phase-separated fluorescent foci in cells); hAG-tagged autophagy adaptor and HA-Ash-6Ub transiently co-expressed in HeLa (WT, Penta KO, FIP200 KO, ATG5 KO, ATG9A KO) or HCT116 (WT, TBK1-/-) cells; foci formation and incorporation of a third protein into the foci read by immunostaining and confocal microscopy; some samples with 2 µM BX-795 for 15 h
The target in assay [1] is hAG-OPTN(210-577, S473E) (human) (UniProt Q96CV9).
Assay [2] addresses hAG-OPTN(138-5A-142, S473E) (human) (UniProt Q96CV9).
The target of assay [3] is hAG-OPTN(143-5A-147, S473E) (human) (UniProt Q96CV9).
Assay [4] addresses hAG-OPTN(190-577, S473E) (human) (UniProt Q96CV9).
Assay [5] has as its target hAG-OPTN(128-5A-132, S473E) (human) (UniProt Q96CV9).
Assay [6] has as its target hAG-OPTN(301-577, S473E) (human) (UniProt Q96CV9).
In assay [7] the target is hAG-OPTN(170-577, S473E) (human) (UniProt Q96CV9).
Assay [8] addresses hAG-OPTN(133-5A-137, S473E) (human) (UniProt Q96CV9).
In assay [9] the target is hAG-OPTN(148-5A-152, S473E) (human) (UniProt Q96CV9).
Assay [10] has as its target hAG-OPTN (human) (UniProt Q96CV9).
The target in assay [11] is hAG-OPTN(150-577, S473E) (human) (UniProt Q96CV9).
Assay [12] concerns the target hAG-OPTN(401-577, S473E) (human) (UniProt Q96CV9).
Assay [13] has as its target hAG-NBR1 (human) (UniProt Q14596).

No constants are given. Whether binding was seen depends on the method and setting. Some binding calls cover weakened binding; strength is not graded here.

B1: ATG9A (protein, UniProt Q7Z3C6 1-839)
chain: MAQFDTEYQRLEASYSDSPPGEEDLLVHVAEGSKSPWHHIENLDLFFSRVYNLHQKNGFTCMLIGEIFELMQFLFVVAFTTFLVSCVDYDILFANKMVNHSLHPTEPVKVTLPDAFLPAQVCSARIQENGSLITILVIAGVFWIHRLIKFIYNICCYWEIHSFYLHALRIPMSALPYCTWQEVQARIVQTQKEHQICIHKRELTELDIYHRILRFQNYMVALVNKSLLPLRFRLPGLGEAVFFTRGLKYNFELILFWGPGSLFLNEWSLKAEYKRGGQRLELAQRLSNRILWIGIANFLLCPLILIWQILYAFFSYAEVLKREPGALGARCWSLYGRCYLRHFNELEHELQSRLNRGYKPASKYMNCFLSPLLTLLAKNGAFFAGSILAVLIALTIYDEDVLAVEHVLTTVTLLGVTVTVCRSFIPDQHMVFCPEQLLRVILAHIHYMPDHWQGNAHRSQTRDEFAQLFQYKAVFILEELLSPIVTPLILIFCLRPRALEIIDFFRNFTVEVVGVGDTCSFAQMDVRQHGHPQWLSAGQTEASVYQQAEDGKTELSLMHFAITNPGWQPPRESTAFLGFLKEQVQRDGAAASLAQGGLLPENALFTSIQSLQSESEPLSLIANVVAGSSCRGPPLPRDLQGSRHRAEVASALRSFSPLQPGQAPTGRAHSTMTGSGVDARTASSGSSVWEGQLQSLVLSEYASTEMSLHALYMHQLHKQQAQAEPERHVWHRRESDESGESAPDEGGEGARAPQSIPRSASYPCAAPRPGAPETTALHGGFQRRYGGITDPGTVPRVPSHFSRLPLGGWAEDGQSASRHPEPVPEEGSEDELPPQVHKV
Regarding B1, the binding entry is “no binding” in assay [1]; “binds” in assay [2]; “no binding” in [3]; “no binding” in assay [4]; “binds” in assay [5]; “no binding” in assay [6]. In addition, the binding entry in assay [7] is listed as “no binding”; in assay [8], “binds”; in assay [9], “no binding”; in [10], “binds”; in assay [11] it was “no binding”; in assay [12], “no binding”. Further, in assay [13], the binding result is on record as “no binding”.
